The other results are listed elsewhere or left out. Sequences were assembled here from the parent chain. Values near 0.05 are background.
B1: TEV protease; numbered along this chain (parent)
chain: MGESLFKGPRDYNPISSSICHLTNESDGHTTSLYGIGFGPFIITNKHLFRRNNGTLVVQSLHGVFKVKDTTTLQQHLVDGRDMIIIRMPKDFPPFPQKLKFREPQREERICLVTTNFQTKSMSSMVSDTSCTFPSGDGIFWKHWIQTKDGQCGSPLVSTRDGFIVGIHSASNFTNTNNYFTSVPKNFMELLTNQEAQQWVSGWRLNADSVLWGGHKVFMVKPEEPFQPVKEATQL

Variants of: B1
Experiment: raw area under fraction-flipped curve 0-4 h after induction (AUC4h, not background-subtracted), DNA-recorder readout of cleavage of the substrate (dimensionless); higher = more cleavage of the substrate by the protease variant
Settings: temperature: 34 °C; time window: 0-4 h after rhamnose induction
Description: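 In vivo DNA recorder in E. coli TOP10(DE3) ΔrhaA at 34 °C. Each TEVp single-site mutant (parent TEVp 0) is paired with a single-site variant of the 7-mer TEVs (canonical ENLYFQ|S). The substrate sits between flexible linkers in a Bxb1-sfGFP-TEVs-SsrA fusion, so cleavage stabilises Bxb1 and speeds flipping of a recombination array, read by NGS. The value is the raw area under the fraction-flipped curve over 0-4 h after rhamnose induction (AUC4h), with ≥20 reads per time point. It is not background-subtracted; inactive controls average about 0.047.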
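Note: Bxb1 expression induced with 0.2% (w/v) L-rhamnose at OD600 near 0.5, cultures sampled hourly, flipped fraction per protease–substrate barcode pair counted by paired-end Illumina sequencing.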

| Variant | area with substrate ENAYFQS | area with substrate ENCYFQS | area with substrate ENDYFQS | area with substrate ENFYFQS | area with substrate ENGYFQS | area with substrate ENHYFQS | area with substrate ENIYFQS | area with substrate ENPYFQS | area with substrate ENQYFQS | area with substrate ENRYFQS | area with substrate ENSYFQS | area with substrate ENTYFQS | area with substrate ENVYFQS | area with substrate ENWYFQS | area with substrate ENEYFQS | area with substrate ENKYFQS | area with substrate ENNYFQS | area with substrate ENMYFQS | area with substrate ENYYFQS |
| --- | --- | --- | --- | --- | --- | --- | --- | --- | --- | --- | --- | --- | --- | --- | --- | --- | --- | --- | --- |
| MGESLFKGPRDYNPISSSICHLTNESDGHTTSLYGIGFGPFIITNKHLFRRNNGTLVVQSLHGVFKVKDTTTLQQHLVDGRDMIIIRMPSDFPPFPQKLKFREPQREERICLVTTNFQTKSMSSMVSDTSCTFPSGDGIFWKHWIQTKDGQCGSPLVSTRDGFIVGIHSASNFTNTNNYFTSVPKNFMELLTNQEAQQWVSGWRLNADSVLWGGHKVFMVKPEEPFQPVKEATQL [K90S] | 0.0678 | 0.0625 | 0.0589 | 0.0611 | 0.0666 | 0.0684 | 0.113 | 0.0762 | 0.0698 | 0.0422 | 0.079 | 0.0672 | 0.0626 | 0.0293 |  |  |  |  |  |
| MGESLFKGPRDYNPISSSICHLTNESDGHTTSLYGIGFGPFIITNKHLFRRNNGTLVVQSLHGVFKVKDTTTLQQHLVDGRDMIIIRMPKDFPPFPQDLKFREPQREERICLVTTNFQTKSMSSMVSDTSCTFPSGDGIFWKHWIQTKDGQCGSPLVSTRDGFIVGIHSASNFTNTNNYFTSVPKNFMELLTNQEAQQWVSGWRLNADSVLWGGHKVFMVKPEEPFQPVKEATQL [K98D] | 0.0685 | 0.0629 | 0.0622 |  | 0.0559 | 0.0479 |  |  | 0.0609 |  | 0.062 | 0.0837 | 0.0829 |  | 0.0639 |  |  |  |  |
| MGESLFKGPRDYNPISSSICHLTNESDGHTTSLYGIGFGPFIITNKHLFRRNNGTLVVQSLHGVFKVKDTTTLQQHLVDGRDMIIIRMPKDFPPFPQKLCFREPQREERICLVTTNFQTKSMSSMVSDTSCTFPSGDGIFWKHWIQTKDGQCGSPLVSTRDGFIVGIHSASNFTNTNNYFTSVPKNFMELLTNQEAQQWVSGWRLNADSVLWGGHKVFMVKPEEPFQPVKEATQL [K100C] | 0.0587 | 0.0549 | 0.0744 | 0.071 | 0.0723 |  |  | 0.05 | 0.0476 | 0.0577 | 0.131 | 0.0664 | 0.0736 |  | 0.0832 | 0.0625 | 0.0506 |  |  |
| MGESLFKGPRDYNPISSSICHLTNESDGHTTSLYGIGFGPFIITNKHLFRRNNGTLVVQSLHGVFKVKDTTTLQQHLVDGRDMIIIRMPKDFPPFIQKLKFREPQREERICLVTTNFQTKSMSSMVSDTSCTFPSGDGIFWKHWIQTKDGQCGSPLVSTRDGFIVGIHSASNFTNTNNYFTSVPKNFMELLTNQEAQQWVSGWRLNADSVLWGGHKVFMVKPEEPFQPVKEATQL [P96I] | 0.0538 | 0.0667 | 0.0562 | 0.0563 | 0.0588 | 0.0537 |  | 0.0645 | 0.0602 | 0.0509 | 0.0321 | 0.059 | 0.0687 |  | 0.052 |  | 0.0432 | 0.0855 |  |
| MGESLFKGPRDYNPISSSICHLTNESDGHTTSLYGIGFGPFIITNKHLFRRNNGTLVVQSLHGVFKVKDTTTLQQHLVDGRDMIIIRMPKDDPPFPQKLKFREPQREERICLVTTNFQTKSMSSMVSDTSCTFPSGDGIFWKHWIQTKDGQCGSPLVSTRDGFIVGIHSASNFTNTNNYFTSVPKNFMELLTNQEAQQWVSGWRLNADSVLWGGHKVFMVKPEEPFQPVKEATQL [F92D] | 0.0559 | 0.0522 |  |  |  |  |  | 0.0529 | 0.0599 |  | 0.0426 | 0.0561 | 0.0601 |  | 0.0487 | 0.0559 |  |  |  |
| MGESLFKGPRDYNPISSSICHLTNESDGHTTSLYGIGFGPFIITNKHLFRRNNGTLVVQSLHGVFKVKDTTTLQQHLVDGRDMIIIRMPKDIPPFPQKLKFREPQREERICLVTTNFQTKSMSSMVSDTSCTFPSGDGIFWKHWIQTKDGQCGSPLVSTRDGFIVGIHSASNFTNTNNYFTSVPKNFMELLTNQEAQQWVSGWRLNADSVLWGGHKVFMVKPEEPFQPVKEATQL [F92I] | 0.0666 |  | 0.0575 | 0.0616 | 0.0558 |  | 0.0946 |  | 0.0607 |  | 0.0547 | 0.0598 | 0.0794 |  |  |  |  | 0.0941 | 0.0641 |
| MGESLFKGPRDYNPISSSICHLTNESDGHTTSLYGIGFGPFIITNKHLFRRNNGTLVVQSLHGVFKVKDTTTLQQHLVDGRDMIIIRMPKKFPPFPQKLKFREPQREERICLVTTNFQTKSMSSMVSDTSCTFPSGDGIFWKHWIQTKDGQCGSPLVSTRDGFIVGIHSASNFTNTNNYFTSVPKNFMELLTNQEAQQWVSGWRLNADSVLWGGHKVFMVKPEEPFQPVKEATQL [D91K] | 0.0584 | 0.0613 | 0.058 |  |  |  |  | 0.0439 | 0.0556 | 0.0626 | 0.0565 |  | 0.0631 |  | 0.0628 | 0.0527 | 0.0584 |  | 0.0662 |
| MGESLFKGPRDYNPISSSICHLTNESDGHTTSLYGIGFGPFIITNKHLFRRNNGTLVVQSLHGVFKVKDTTTLQQHLVDGRDMIIIRMPKIFPPFPQKLKFREPQREERICLVTTNFQTKSMSSMVSDTSCTFPSGDGIFWKHWIQTKDGQCGSPLVSTRDGFIVGIHSASNFTNTNNYFTSVPKNFMELLTNQEAQQWVSGWRLNADSVLWGGHKVFMVKPEEPFQPVKEATQL [D91I] | 0.0652 | 0.0583 | 0.0586 | 0.0647 |  |  | 0.107 | 0.0588 | 0.0626 |  | 0.0799 |  | 0.084 |  |  | 0.0789 | 0.0707 | 0.0735 |  |
| MGESLFKGPRDYNPISSSICHLTNESDGHTTSLYGIGFGPFIITNKHLFRRNNGTLVVQSLHGVFKVKDTTTLQQHLVDGRDMIIIRMPKNFPPFPQKLKFREPQREERICLVTTNFQTKSMSSMVSDTSCTFPSGDGIFWKHWIQTKDGQCGSPLVSTRDGFIVGIHSASNFTNTNNYFTSVPKNFMELLTNQEAQQWVSGWRLNADSVLWGGHKVFMVKPEEPFQPVKEATQL [D91N] | 0.0367 |  | 0.0483 |  |  |  |  | 0.0293 | 0.072 | 0.0616 | 0.0577 | 0.0564 | 0.0788 |  | 0.0697 | 0.066 |  |  |  |
